Data published in US20140004122A1, “METHODS FOR TREATING OR PREVENTING CHOLESTEROL RELATED DISORDERS” (AMGEN INC., priority 2011, published 2014).

Experiments:
[1] = Viscosity of 11F1 formulations; format: physicochemical
Procedure: Concentration determination was then carried out by measuring absorbance at A280 using an Agilent 8453 Spectrophotometer (Santa Clara, Calif.). Protein concentration was calculated using the appropriate extinction coefficient. The appropriate amount of buffer was then added to the sample to dilute it back down to the desired concentration and another A280 was performed to obtain the final concentration for the experiment. Excipients were added individually to the 11F1 formulations samples derived from the high concentration stock solutions.
Viscosity was measured using Brookfield LV-DVII cone and plate viscometer (Middleboro, Mass.) with a CPE-40 spindle with matching sample cup temperature regulated by a circulating water bath at constant 25° C. 500 μL of sample was added to sample cup with positive displacement pipettor. […] At this point the rotational speed was stopped and a viscosity reading was generated by Rheocalc software.
High concentration protein formulations were sometimes measured using a different type of viscometer, an Anton Paar Physica Model MCR300 with a CP50-1 spindle. A 600 uL sample is used in this instrument and Rheoplus software version 3.4 was use to calculate solution viscosity. There was not a large difference in measurements using either viscometer.

cynomolgus monkeys = experiment: Serum lipids after single subcutaneous dose in cynomolgus monkeys (Example 36); format: in vivo, cynomolgus monkey; conditions: 0.5 mg/kg single SC
Excerpt: Briefly, naive male cynomolgus monkeys were acclimated to their environment for at least 2 weeks prior to experimentation. Animals were randomized into treatment groups based on a pre-screen of their serum TC, HDL-C, LDL-C, and triglyceride levels, and their body weight. After 1 week, animals were fasted overnight, and bled from the peripheral vasculature (cephalic or saphenous vein), for measurement of baseline serum lipid levels at a time point designated T=0. […] Fasting blood samples were then collected from animals at designated time points over a 45 day period.
At specified time points, blood was collected from animals under overnight fasting conditions from the peripheral vasculature (cephalic or saphenous vein). Whole blood was allowed to coagulate for 30 minutes at room temperature. Following centrifugation at 3,000 rpm for 20 minutes, serum was collected. Direct serum cholesterol analysis was performed using the Cobas Integra 400 analyzer (Roche Diagnostics Inc, Indianapolis, Ind.). Apolipoprotein B serum levels were determined at specified time points (day 0, 3, 6, 15, 24 and 33) by Anilytics, MD, with the following methodology. A 17 μL aliquot of the sample (no preparation) was used for analysis with a Hitachi 717 Analyzer using a 6 points standard curve. If the initial value of the sample was higher than the standard curve linearity, then the sample was diluted and repeated with the result multiplied by the appropriate dilution factor. The reagents for the assay (APO-B Reagent Kit #86071, Antibody Set #86060, Control Set #86103) were obtained from DiaSorin (Stillwater, Minn.).
A statistical model that considers baseline as a covariate and treatment group as a fixed effect was fit to the log transformed response at each time point for LDL-C, HDL-C, TC, and triglycerides. Tukey's multiple comparison correction was applied to adjust the pair wise comparisons at each time point. The statistical significance was evaluated at alpha=0.05 using adjusted p-values.

[2] = tested on: C57BL/6 mice expressing human PCSK9 by AAV; experiment: Serum lipids in mice expressing human PCSK9 by AAV (Example 35); format: in vivo, mouse; conditions: 30 mg/kg IV bolus
Procedure: Briefly, 120 C57BL/6 mice expressing human PCSK9 were generated by infection with an engineered adeno associated virus (AAV) coding for human PCSK9, resulting in elevated levels of circulating low density lipoprotein cholesterol (LDL-C). Serum cholesterol analysis was performed using the Cobas Integra 400 plus chemistry analyzer (Roche Diagnostics, Indianapolis, Ind.). Animals were randomized into treatment groups with similar levels of non-HDL-C (LDL-C and VLDL-C), HDL-C and TC. On treatment day 0 (T=0) a subset of mice was euthanized and serum collected to establish that day's baseline levels. Remaining mice were then administered 11F1, 8A3 or anti-keyhole limpethemocyanin (KLH) IgG2 control antibody at 30 mg/kg. via tail vein injection. At days 1 through 5 following injection, subsets of mice were euthanized and whole blood was collected from the vena cava and allowed to coagulate for 30 minutes at room temperature. Following centrifugation at 12,000 rpm with a bench top centrifuge for 10 minutes, serum was collected. Serum cholesterol analysis was performed using the Cobas Integra 400 plus chemistry analyzer.
Serum concentrations of PCSK9 were determined using a sandwich ELISA assay. […] Plates were washed thoroughly with 1×PBS/0.05% tween and then blocked for 2 hours with 3% BSA/1×PBS. After washing, plates were incubated for 2 hours with serum diluted in general assay diluents (Immunochemistry Technologies, Bloomington, Minn.). […] Bound PCSK9 was detected by incubation with TMB substrate. The reaction was stopped with addition of 1N HCl and the absorbance measured at 450 nm on a Spectra Max Plus 384 Spectrophotometer (Molecular Devices Inc, Sunnyvale, Calif.). […]
All cholesterol results were expressed as the mean±standard error of the mean. All pharmacokinetic data were expressed as the mean±standard deviation. The p value of 0.05, determined by 1-way ANOVA was used as a threshold to determine statistical significance between the anti-KLH IgG2 control antibody injected animals and those dosed with anti-PCSK9 antibody at the same time point.

B1: 11F1: anti-PCSK9 antibody; light/heavy variable region SEQ ID NO 465/463 (antibody, listed as Homo sapiens, V domains shown)
VH: EVQLVESGGGLVQPGGSLRLSCAASGFTFSNYWMSWVRQAPGKGLEWVASIKQDGSEKYYVDSVKGRFAISRDNAKNSLFLQMNSLRAEDTAVYYCARDLVLMVYDIDYYYYGMDVWGQGTTVTVSS
VL: [about 100 residues not spelt out]YCMQTLQTPLTFGGGTKVEIK
Q: For B1, which “Viscosity (cP) @ 25 C.” value ([1]; 11F1 145 mg/mL, 10 mM sodium acetate, 9% Sucrose 0.01% PS 20, pH 5.2) is on record?
A: The value was 14 cP.

Q: And the “Viscosity (cP) @ 25 C.” value ([1]; 11F1 147 mg/mL, 10 mM sodium acetate, 150 mM Methionine, 3% Sucrose, 0.01% PS 20, pH 5.2)?
A: Its value is 13 cP.

Q: And the “Viscosity (cP) @ 25 C.” value ([1]; 11F1 170 mg/mL, 10 mM sodium acetate, 250 mM Proline, 0.01% PS 20, pH 5.0)?
A: Its value is 18 cP.

Q: And the “Viscosity (cP) @ 25 C.” value ([1]; 11F1 172 mg/mL, 10 mM sodium acetate, 9% Sucrose 0.01% PS 20, pH 5.2)?
A: Its value is 23 cP.

Q: And the “Viscosity (cP) @ 25 C.” value ([1]; 11F1 186 mg/mL, 10 mM sodium acetate, 9% Sucrose 0.01% PS 20, pH 5.2)?
A: Its value is 45 cP.

Q: What about the “Viscosity (cP) @ 25 C.” value ([1]; 11F1 191 mg/mL, 10 mM sodium acetate, 9% Sucrose 0.01% PS 20, pH 5.2) of the same molecule?
A: Its value is 53 cP.

Q: And the “Viscosity (cP) @ 25 C.” value ([1]; 11F1 192 mg/mL, 10 mM sodium acetate, 150 mM Methionine, 3% Sucrose, 0.01% PS 20, pH 5.2)?
A: Its value is 31 cP.

Q: What about the “Viscosity (cP) @ 25 C.” value ([1]; 11F1 196 mg/mL, 10 mM sodium acetate, 250 mM Proline, 0.01% PS 20, pH 5.0) of the same molecule?
A: The value was 36 cP.

Q: And the “Viscosity (cP) @ 25 C.” value ([1]; 11F1 211 mg/mL, 10 mM sodium acetate, 9% Sucrose, 150 mM Alanine, pH 5.2)?
A: The value was 43 cP.

Q: What about the “Viscosity (cP) @ 25 C.” value ([1]; 11F1 211 mg/mL, 10 mM sodium acetate, 9% Sucrose, 150 mM Glycine, pH 5.2) of the same molecule?
A: The value was 45 cP.

Q: And the “Viscosity (cP) @ 25 C.” value ([1]; 11F1 211 mg/mL, 10 mM sodium acetate, 9% Sucrose, 150 mM Serine, pH 5.2)?
A: Its value is 48 cP.

Q: And the “Viscosity (cP) @ 25 C.” value ([1]; 11F1 211 mg/mL, 10 mM sodium acetate, 9% Sucrose, 150 mM sodium chloride, pH 5.2)?
A: Its value is 62 cP.

Q: What about the “Viscosity (cP) @ 25 C.” value ([1]; 11F1 211 mg/mL, 10 mM sodium acetate, 9% Sucrose, pH 5.2) of the same molecule?
A: The value was 73 cP.

Q: And the “Viscosity (cP) @ 25 C.” value ([1]; 11F1 211 mg/mL, 10 mM sodium acetate, pH 5.2)?
A: The value was 58 cP.

Q: And the “Viscosity (cP) @ 25 C.” value ([1]; 11F1 211 mg/mL, line without buffer, standing above 10 mM sodium acetate, 9% Sucrose, 100 mM Arginine, pH 5.2)?
A: Its value is 26 cP.

Q: What about the “Viscosity (cP) @ 25 C.” value ([1]; 11F1 212 mg/mL, 10 mM sodium acetate, 150 mM Methionine, 3% Sucrose, 0.01% PS 20, pH 5.2) of the same molecule?
A: The value was 54 cP.

Q: What about the “Viscosity (cP) @ 25 C.” value ([1]; 11F1 212 mg/mL, 10 mM sodium acetate, 250 mM Proline, 0.01% PS 20, pH 5.0) of the same molecule?
A: The value was 47 cP.

Q: What about the “Viscosity (cP) @ 25 C.” value ([1]; 11F1 224 mg/mL, 10 mM sodium acetate, 9% Sucrose 0.01% PS 20, pH 5.2) of the same molecule?
A: Its value is 133 cP.

Q: What about the “Viscosity (cP) @ 25 C.” value ([1]; 11F1 […], 10 mM sodium acetate, 150 mM Methionine, 3% Sucrose, 0.01% PS 20, pH 5.2) of the same molecule?
A: Its value is 18 cP.

Q: What about the “Viscosity (cP) @ 25 C.” value ([1]; 11F1 […], 10 mM sodium acetate, 9% Sucrose 0.01% PS 20, pH 5.2) of the same molecule?
A: The value was 8 cP.

Q: And the “viscosity of formulations with stabilizers” value ([1]; formulations comprising methionine, proline, arginine, glycine, serine and alanine)?
A: The value was “particularly lower viscosity”.

Q: What about the “TC returned to levels similar to control animals by day” value (cynomolgus monkeys) of the same molecule?
A: Its value is at most 27 days.

Q: And the “maximal lowering of LDL-C as compared to anti-KLH IgG2 control antibody-treated monkeys” value (cynomolgus monkeys)?
A: Its value is 57%.

Q: What about the “maximal lowering of TC as compared to control animals” value (cynomolgus monkeys) of the same molecule?
A: Its value is 27%.

Q: And the “time of maximal LDL-C lowering after injection” value (cynomolgus monkeys)?
A: The value was 9 days.

Q: And the “time of maximal TC lowering after injection” value (cynomolgus monkeys)?
A: Its value is 9 days.

Q: What about the HDL-C levels (cynomolgus monkeys; 45 day study) of the same molecule?
A: The HDL-C levels was “No statistically significant changes”.

Q: What about the triglycerides levels (cynomolgus monkeys; 45 day study) of the same molecule?
A: The triglycerides levels was “No statistically significant changes”.

Q: What about the “HDL-C or triglyceride levels vs anti-KLH IgG2 control antibody-treated monkeys” value (cynomolgus monkeys; alpha=0.05) of the same molecule?
A: The value was “not significantly different”.

Q: And the “serum ApoB levels vs anti-KLH IgG2 control antibody-treated monkeys” value (cynomolgus monkeys; days 3, 6, 15, 24 and 33)?
A: Its value is “ApoB lowering at days 3 to 24”.

Q: What about the “maximal lowering of LDL-C (vs anti-KLH IgG2 control antibody at the same time point)” value (cynomolgus monkeys; printed as negative change) of the same molecule?
A: Its value is −57%.

Q: And the “lowering of HDL-C” value ([2]; any time point)?
A: Its value is “No significant lowering”.

Q: What about the “lowering of TC compared to control animals” value ([2]; day 4) of the same molecule?
A: Its value is 22%.

Q: And the “maximum lowering of serum non-HDL-C compared to control animals” value ([2]; significant at days 1, 2 and 4 post-injection)?
A: Its value is 59%.
